This experiment deals with Recombinant heterodimeric HCV NS3/NS4A protease (strain 1a) (Hepatitis C virus genotype 1a, UniProt P27958). Description: Spectrophotometric assay for HCV protease inhibitory activity. It counts as biochemical. Conditions: HCV serine protease inhibitory activity ranges; read-out: Ki* Range. The source says: The present invention relates to novel HCV protease inhibitors. This utility can be manifested in their ability to inhibit the HCV NS2/NS4a serine protease.
Assay for HCV Protease Inhibitory Activity:
Spectrophotometric Assay: Spectrophotometric assay for the HCV serine protease can be performed on the inventive compounds by following the procedure described by R. Zhang et al, Analytical Biochemistry, 270 (1999) 268-275, the disclosure of which is incorporated herein by reference. The assay based on the proteolysis of chromogenic ester substrates is suitable for the continuous monitoring of HCV NS3 protease activity. The substrates are derived from the P side of the NS5A-NS5B junction sequence (Ac-DTEDVVX(Nva), where X=A or P) whose C-terminal carboxyl groups are esterified with one of four different chromophoric alcohols (3- or 4-nitrophenol, 7-hydroxy-4-methyl-coumarin, or 4-phenylazophenol). Illustrated below are the synthesis, characterization and application of these novel spectrophotometric ester substrates to high throughput screening and detailed kinetic evaluation of HCV NS3 protease inhibitors. Materials and Methods: Materials: Chemical reagents for assay related buffers are obtained from Sigma Chemical Company (St. Louis, Mo.). Reagents for peptide synthesis were from Aldrich Chemicals, Novabiochem (San Diego, Calif.), Applied Biosystems (Foster City, Calif.) and Perseptive Biosystems (Framingham, Mass.). Peptides are synthesized manually or on an automated ABI model 431A synthesizer (from Applied Biosystems). UV/VIS Spectrometer model LAMBDA 12 was from Perkin Elmer (Norwalk, Conn.) and 96-well UV plates were obtained from Corning (Corning, N.Y.). The prewarming block can be from USA Scientific (Ocala, Fla.) and the 96-well plate vortexer is from Labline Instruments (Melrose Park, Ill.). A Spectramax Plus microtiter plate reader with monochrometer is obtained from Molecular Devices (Sunnyvale, Calif.). […] Protein concentrations are determined by the Biorad dye method using recombinant HCV protease standards previously quantified by amino acid analysis. Prior to assay initiation, the enzyme storage buffer (50 mM sodium phosphate pH 8.0, 300 mM NaCl, 10% glycerol, 0.05% lauryl maltoside and 10 mM DTT) is exchanged for the assay buffer (25 mM MOPS pH 6.5, 300 mM NaCl, 10% glycerol, 0.05% lauryl maltoside, 5 μM EDTA and 5 μM DTT) utilizing a Biorad Bio-Spin P-6 prepacked column. Substrate Synthesis and Purification: The synthesis of the substrates is done as reported by R. Zhang et al, (ibid.) and is initiated by anchoring Fmoc-Nva-OH to 2-chlorotrityl chloride resin using a standard protocol (K. Barlos et al, Int. J. Pept. Protein Res., 37 (1991), 513-520). The peptides are subsequently assembled, using Fmoc chemistry, either manually or on an automatic ABI model 431 peptide synthesizer. […] The combined filtrate and DCM wash is evaporated azeotropically (or repeatedly extracted by aqueous Na2CO3 solution) to remove the acid used in cleavage. The DCM phase is dried over Na2SO4 and evaporated.
The ester substrates are assembled using standard acid-alcohol coupling procedures (K. Holmber et al, Acta Chem. Scand., B33 (1979) 410-412). Peptide fragments are dissolved in anhydrous pyridine (30-60 mg/ml) to which 10 molar equivalents of chromophore and a catalytic amount (0.1 eq.) of para-toluenesulfonic acid (pTSA) were added. Dicyclohexylcarbodiimide (DCC, 3 eq.) is added to initiate the coupling reactions. Product formation is monitored by HPLC and can be found to be complete following 12-72 hour reaction at room temperature. Pyridine solvent is evaporated under vacuum and further removed by azeotropic evaporation with toluene.

Each structure is given as a SMILES string.

Turning to `CCCC[C@H](NC(=O)[C@@H]1[C@@H]2[C@H](CN1C(=O)[C@@H](NC(=O)NC1(CS(=O)(=O)N(C)CC3CC3)CCCCC1)C(C)(C)C)C2(C)C)C(=O)C(=O)NC1CC1` [compound 1270], the inhibition constant (Ki) was under 75 nM.
Under `CN(C(C)(C)C)S(=O)(=O)CC1(NC(=O)N[C@H](C(=O)N2C[C@H]3[C@@H]([C@H]2C(=O)N[C@@H](CC2CC2)C(=O)C(=O)NC2CC2)C3(C)C)C(C)(C)C)CCCCC1` [compound 1275] stands under 75 nM; under `CCCC[C@H](NC(=O)[C@@H]1[C@@H]2[C@H](CN1C(=O)[C@@H](NC(=O)NC1(CS(=O)(=O)N(C)C3CCC3)CCCCC1)C(C)(C)C)C2(C)C)C(=O)C(=O)NC1CC1` [compound 1383], under 75 nM.
As to `CC(C)N(C)S(=O)(=O)CC1(NC(=O)N[C@H](C(=O)N2C[C@H]3[C@@H]([C@H]2C(=O)N[C@@H](CCC2CC2)C(=O)C(=O)NC2CC2)C3(C)C)C(C)(C)C)CCCCC1` [compound 1249], the Ki was under 75 nM.
`CC(C)(C)[C@H](NC(=O)NC1([C@H]2CCN(C3CC3)S2(=O)=O)CCCCC1)C(=O)N1C[C@H]2[C@@H]([C@H]1C(=O)N[C@@H](CCC1CC1)C(=O)C(=O)NC1CC1)C2(C)C` [compound 1215]: the Ki is under 75 nM.
The same measure for `CCC[C@H](NC(=O)[C@@H]1[C@@H]2[C@H](CN1C(=O)[C@@H](NC(=O)NC1(CS(=O)(=O)N(C)CC)CCCCC1)C(C)(C)C)C2(C)C)C(=O)C(=O)NC1CC1` [compound 1284]: under 75 nM; for `CCCC[C@H](NC(=O)[C@@H]1[C@@H]2[C@H](CN1C(=O)[C@@H](NC(=O)NC1(CS(=O)(=O)N(CC)C(C)C)CCCCC1)C(C)(C)C)C2(C)C)C(=O)C(=O)NC1CC1` [compound 1300]: under 75 nM; for `CCCC[C@H](NC(=O)[C@@H]1[C@@H]2[C@H](CN1C(=O)[C@@H](NC(=O)NC1(CS(=O)(=O)N(C)C)CCCCC1)C1(C)CCCCC1)C2(C)C)C(=O)C(=O)NC1CC1` [compound 1236]: under 75 nM.
With `CN(C1CC1)S(=O)(=O)CC1(NC(=O)N[C@H](C(=O)N2C[C@H]3[C@@H]([C@H]2C(=O)N[C@@H](CCC2CC2)C(=O)C(=O)NC2CC2)C3(C)C)C2(C)CCCCC2)CCCCC1` [compound 1269], the Ki is under 75 nM.
On to `CCC[C@H](NC(=O)[C@@H]1[C@@H]2[C@H](CN1C(=O)[C@@H](NC(=O)NC1(CS(=O)(=O)N(CC)C(C)(C)C)CCCCC1)C1(C)CCCCC1)C2(C)C)C(=O)C(=O)NC1CC1` [compound 1325], for which the Ki is under 75 nM.
Take `CC(C)(C)[C@H](NC(=O)NC1(CS(=O)(=O)N2CCC2)CCCCC1)C(=O)N1C[C@H]2[C@@H]([C@H]1C(=O)N[C@@H](CC1CC1)C(=O)C(=O)NC1CC1)C2(C)C` [compound 1342]: the Ki was under 75 nM.
With `CN(C(C)(C)C)S(=O)(=O)CC1(NC(=O)N[C@H](C(=O)N2C[C@H]3[C@@H]([C@H]2C(=O)N[C@@H](CC2CC2)C(=O)C(=O)NC2CC2)C3(C)C)C2(C)CCCCC2)CCCCC1` [compound 1279], the inhibition constant (Ki) was under 75 nM.
The same measure for `CC(C)N(C(C)C)S(=O)(=O)CC1(NC(=O)N[C@H](C(=O)N2C[C@H]3[C@@H]([C@H]2C(=O)N[C@@H](CC2CC2)C(=O)C(=O)NC2CC2)C3(C)C)C(C)(C)C)CCCCC1` [compound 1346]: under 75 nM; for `CCC[C@H](NC(=O)[C@@H]1[C@@H]2[C@H](CN1C(=O)[C@@H](NC(=O)NC1([C@@H]3CCN(C4CC4)S3(=O)=O)CCCCC1)C(C)(C)C)C2(C)C)C(=O)C(=O)NC1CC1` [compound 1217]: under 75 nM; for `C[C@@H](C1CC1)N(C)S(=O)(=O)CC1(NC(=O)N[C@H](C(=O)N2C[C@H]3[C@@H]([C@H]2C(=O)N[C@@H](CC2CC2)C(=O)C(=O)NC2CC2)C3(C)C)C(C)(C)C)CCCCC1` [compound 1289]: under 75 nM.
Take `CN(CC(F)(F)F)S(=O)(=O)CC1(NC(=O)N[C@H](C(=O)N2C[C@H]3[C@@H]([C@H]2C(=O)N[C@@H](CC2CC2)C(=O)C(=O)NC2CC2)C3(C)C)C2(C)CCCCC2)CCCCC1` [compound 1323]: the Ki is under 75 nM.

Values taken from patent US7816326B2, “Sulfur compounds as inhibitors of hepatitis C virus NS3 serine protease” (Schering Corporation, priority 2004, dated 2010).
